According to PubChem BioAssay AID624330 (Southern Research Specialized Biocontainment Screening …, 2012):
Screen size: about 340,000 compounds; about 2,100 (0.62%) were called active. The inconclusive results got no clear call from the source; some entries with a clear call stand among them for comparison.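 How the source made its calls: active means first-screen hits whose inhibition reached a set limit at any dose in the follow-up dose series; inconclusive means inhibition above the set first-screen limit but never retested; inactive means the rest.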

Each compound was assayed against Rac GTPase-activating protein 1 (Homo sapiens) (UniProt Q9H0H5) (assay: blockers of MgcRacGAP-driven Rac1 GTP hydrolysis – biochemical, ADP Hunter fluorescence, primary and confirmatory, confirmation (AID 624330;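 further: fluorescence reports GDP produced by GAP-driven GTP hydrolysis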)). Settings: MgcRacGAP-stimulated Rac1 GTP hydrolysis, at 30 µM, stronger effect = higher value, GST-tagged Rac1 F28L mutant substrate.
UniProt Q9H0H5, sequence (Q9H0H5 whole entry, looked up): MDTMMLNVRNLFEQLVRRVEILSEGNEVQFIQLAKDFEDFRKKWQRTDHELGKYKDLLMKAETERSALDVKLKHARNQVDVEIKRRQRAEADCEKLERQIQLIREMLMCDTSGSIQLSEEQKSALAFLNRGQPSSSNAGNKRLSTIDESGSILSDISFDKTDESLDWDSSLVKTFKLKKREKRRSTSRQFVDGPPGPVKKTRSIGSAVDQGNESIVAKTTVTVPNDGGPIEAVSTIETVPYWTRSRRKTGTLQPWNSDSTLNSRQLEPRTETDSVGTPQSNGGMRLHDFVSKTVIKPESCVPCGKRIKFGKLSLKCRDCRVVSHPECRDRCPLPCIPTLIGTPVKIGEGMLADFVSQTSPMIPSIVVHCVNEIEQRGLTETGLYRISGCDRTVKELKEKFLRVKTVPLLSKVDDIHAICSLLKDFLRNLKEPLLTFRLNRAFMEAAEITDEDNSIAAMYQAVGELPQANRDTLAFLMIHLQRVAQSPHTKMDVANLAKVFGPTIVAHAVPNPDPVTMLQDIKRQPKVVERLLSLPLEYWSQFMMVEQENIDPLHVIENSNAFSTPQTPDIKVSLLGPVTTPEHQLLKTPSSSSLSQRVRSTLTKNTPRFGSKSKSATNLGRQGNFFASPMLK
For `CN1C(=O)c2cccc(NCCCN3C(=O)c4ccccc4C3=O)c2C1=O`, the inhibition was inactive: 10.7%. `COc1ccccc1C(=O)Nc1ccc(N2CCCCC2)cc1` was tested, and the inhibition was inactive: 16.2%. In the case of `O=C(Cc1ccc(Cl)cc1)NNc1c(F)c(F)cc(F)c1F`, the inhibition was inactive: 5.43%. With `COC(=O)Oc1ccc(/C=C/C(=O)OC(C)C)cc1OC(=O)OC` the inhibition was inconclusive: 34.6%. For `O=C1N[C@H](Cc2ccccc2)CO1`, the inhibition was inactive: 3.86%. For `CN(C)c1ccc(NC(=O)N2CCOCC2)cc1`, the inhibition was inconclusive: 60.5%. For `COc1ccc(C(=O)Nc2ccccc2NC(=O)c2ccco2)cc1OC`, the inhibition was inactive: 11%. In the case of `O=[N+]([O-])c1ccccc1NC(=S)N/N=C/c1ccc(O)c(O)c1`, the inhibition was inconclusive: 37.4%. In the case of `O=C1C=C(O)c2cccc(O)c2C1=O`, the inhibition was inactive: 0.71%. For `COc1ccc(O)c(/C=N/NC(=O)c2cccc(N3CCCC3=O)c2)c1`, the inhibition was inactive: 3.65%. For `COc1ccc(N=Cc2c(O)[nH]c3ccccc23)cc1`, the inhibition was inactive: 9.26%. With `CCN1CCN(CC(=O)Nc2cc3c(cc2C(C)=O)OCO3)CC1` the inhibition was inconclusive: 35.2%. `COc1ccc(NC(=O)C2CCCO2)cc1OC` (stereo not drawn) was tested, and the inhibition was inactive: 10.4%. For `C#CCOCCOCCOCCNc1nc(N2CCN(C(=O)CCCCCCCCCCNC(=O)Cn3cc(CCCCCN)nn3)CC2)nc(N2CCN(C(=O)CCCCCCCCCCNC(=O)[C@H]([C@@H](C)CC)n3cc(CCCCN=C(N)N)nn3)CC2)n1`, the inhibition was inconclusive: 87.6%. For `CCOC(=O)c1c(/N=C/C2C(=O)CC(C)(C)CC2=O)sc(C)c1C`, the inhibition was inconclusive: 32.7%. `O=c1[nH]c(/C=C\c2ccc(O)c(O)c2)nc(O)c1[N+](=O)[O-]` was tested, and the inhibition was inconclusive: 73.5%. With `COc1ccc(Br)cc1CN1CCCCCCC1` the inhibition was inactive: 11.8%. `CCOc1cc(CNc2ccc(N3CCN(C(C)=O)CC3)cc2)cc(Br)c1OC` was tested, and the inhibition was inconclusive: 137%. For `COCC(C)n1c(C)cc(C(=O)CSc2nnnn2-c2ccc(O)cc2)c1C` (stereo not drawn), the inhibition was inactive: 6.49%. In the case of `Nc1ccc(NC(=O)Nc2ccc(N)cc2)cc1`, the inhibition was inconclusive: 93.9%. `CN1c2ccccc2Sc2cc(N)ccc21` was tested, and the inhibition was inconclusive: 109%. With `COc1ccc(NC(=O)c2ccc(C(=O)c3ccccc3)o2)cc1` the inhibition was inactive: 1.49%. In the case of `Cc1ccccc1NC(=S)N/N=C/c1ccc(O)cc1O`, the inhibition was inconclusive: 41.8%. In the case of `COc1cc(O)ccc1C(=O)CCc1ccc(O)cc1`, the inhibition was inconclusive: 70.9%. With `CCN(CC)c1ccc(/C=C2/C(=O)c3ccc(C(=O)O)cc3C2=O)cc1` the inhibition was inconclusive: 37.5%. In the case of `COc1ccc(CN2CCN(C(=O)c3ccccc3F)CC2)c(OC)c1OC`, the inhibition was inactive: -1.41%. In the case of `Cc1cc(Cl)c(OCCOCCN2CCC(C)CC2)c(Br)c1`, the inhibition was inactive: 21.9%. For `Fc1c(F)c(F)c(N/N=C/c2c[nH]c3ccccc23)c(F)c1F`, the inhibition was inactive: 3.69%. In the case of `CCOc1ccc2[nH]c(=O)c(CN(CCN3CCCC3)C(=S)Nc3ccccc3OC)cc2c1`, the inhibition was inactive: 3.77%. `O=C(C1CCCN(Cc2ccncc2)C1)N1CCc2ccccc2C1` (stereo not drawn) was tested, and the inhibition was inconclusive: 36.8%. `C/C(=N\Nc1cccc(C(=O)O)c1)c1ccc2c(c1)Nc1ccccc1S2` was tested, and the inhibition was inconclusive: 62.9%. For `Oc1ccc(CCC2CCCCN2Cc2nc(C3CC3)no2)cc1` (stereo not drawn), the inhibition was inconclusive: 34.6%. For `CC1CCC(N2CCN(S(C)(=O)=O)CC2)CC1` (stereo not drawn), the inhibition was inconclusive: 32.4%. In the case of `O=C(N/N=C/c1c[nH]c2ccccc12)c1ccc(O)c(O)c1`, the inhibition was inconclusive: 80.2%. `Oc1ccc(N=Cc2ccc(O)c(O)c2)cc1` was tested, and the inhibition was inconclusive: 40.2%. In the case of `CCN1C(=O)CC(N2CCN(c3cccc(OC)c3)CC2)C1=O` (stereo not drawn), the inhibition was inactive: 7.87%. `COc1cc(NCCCn2cnc3c(OCc4ccccc4)ncnc32)cc(OC)c1OC` was tested, and the inhibition was inconclusive: 34%. With `O=C(Nc1ccc(F)cc1)c1cncs1` the inhibition was inactive: 9.26%. `COc1ccccc1CN1CCN(Cc2ccc3ccccc3c2)CC1` was tested, and the inhibition was inconclusive: 35%. With `Oc1ccc(-c2cnns2)c(O)c1` the inhibition was inconclusive: 36.6%. `Cc1ccc(C)n1Cc1ccc(C(=O)O)cc1` was tested, and the inhibition was inconclusive: 61.9%. `COc1cc(/C=N/NC(=O)c2cc(C34CC5CC(CC(C5)C3)C4)[nH]n2)ccc1O` was tested, and the inhibition was inconclusive: 33.5%. `CCn1c(=O)n(CC)c2cc(N3CCCC3)c(NC(=O)c3ccccc3C)cc21` was tested, and the inhibition was inconclusive: 35.7%. For `COc1ccc(C(=O)N/N=C/c2sc3ccccc3c2O)cc1`, the inhibition was inconclusive: 88.2%. `NC(=O)c1ccc(N2CCN(c3ccc(O)cc3)CC2)c([N+](=O)[O-])c1` was tested, and the inhibition was inconclusive: 70.3%. `O=C(NCc1ccccc1)c1sc(=S)n2c1[nH]c(=O)c1ccccc12` was tested, and the inhibition was inconclusive: 39.5%. In the case of `O=C(CC(=O)N/N=C/c1ccc(O)cc1)N/N=C/c1ccc(O)cc1`, the inhibition was inconclusive: 69.8%. `C/C=C/c1ccc(OCCCCN2CC(C)CC(C)C2)c(OC)c1` (stereo not drawn) was tested, and the inhibition was inconclusive: 35.7%. `O=C1C=C(c2ccccc2)C(=O)N1Nc1ccccc1` was tested, and the inhibition was inconclusive: 33.5%. In the case of `CCOc1ccc(S(=O)(=O)N(C(=O)c2ccco2)c2cc3sc(=O)oc3c3ccccc23)cc1`, the inhibition was inconclusive: 34.1%. `C/C(CC(=O)Nc1ccc2ccccc2c1)=N\NC(=O)c1ccc(O)c(O)c1` was tested, and the inhibition was inconclusive: 50.4%. `CCN(CC(=O)NCc1ccccc1Cl)CC(=O)Nc1c(F)cccc1F` was tested, and the inhibition was inconclusive: 35.1%. For `S=c1[nH]nc(-c2ccco2)n1/N=C/C=C/c1ccco1`, the inhibition was inconclusive: 34.7%. In the case of `CCN(c1ccccc1)S(=O)(=O)c1ccc(N2CCN(c3ccc(OC)cc3)CC2)nc1`, the inhibition was inactive: 4.13%. `CN(C)CCCO/N=C(\c1ccccc1)c1ccncc1` was tested, and the inhibition was inactive: 24.4%. In the case of `N/C(=N\N=C\c1ccc(O)c(O)c1)c1nonc1N`, the inhibition was inconclusive: 54.4%. `O=C(CC1SC(=Nc2ccc(O)cc2)NC1=O)Nc1ccccc1` (stereo not drawn) was tested, and the inhibition was inconclusive: 47.3%. `C/C(=N\NC(=O)c1ccc(O)cc1)c1cccc(NC(=O)c2ccc(Cl)cc2)c1` was tested, and the inhibition was inactive: 8.52%. In the case of `CC(C)NC(=O)CN1CCN(c2ncccn2)CC1`, the inhibition was inconclusive: 21.2%. For `Oc1[nH]c2ccccc2c1C=Nc1ccccc1`, the inhibition was inactive: 11.5%. In the case of `COc1ccc(NC(=O)CSc2ccc3ccccc3c2)cc1S(=O)(=O)N1CCCCC1`, the inhibition was inactive: 8.21%. In the case of `O=C(CN1CCCc2ccccc21)N/N=C/c1ccc(O)cc1O`, the inhibition was inconclusive: 32%. For `COc1cc(/C=C2\SC(=S)N(NS(=O)(=O)c3ccccc3)C2=O)ccc1O`, the inhibition was inconclusive: 46.6%. `CN(C)c1ccc(Nc2cc(Cl)ncn2)cc1` was tested, and the inhibition was inconclusive: 86.9%. With `Oc1cc(O)c2c(c1)O[C@H](c1ccc(O)c(O)c1)[C@@H](O)C2` the inhibition was inconclusive: 31.9%. In the case of `O=C(N/N=C1/CC2CCC1C2)c1cc2ccccc2cc1O` (stereo not drawn), the inhibition was inconclusive: 33.8%. With `CC(C)(C)c1ccc(S(=O)(=O)N(CCCN2CCOCC2)Cc2cccs2)cc1` the inhibition was inconclusive: 33.1%. With `Cn1c(N)c(C(=O)CSc2nc3ccccc3n2-c2ccccc2)c(=O)n(C)c1=O` the inhibition was inactive: 4.85%. With `CN1CCCN(Cc2ccccc2Br)CC1` the inhibition was inconclusive: 34.4%. `COc1ccc2ccccc2c1C1NC(=O)NC(C)=C1[N+](=O)[O-]` (stereo not drawn) was tested, and the inhibition was inactive: 1.63%. `Brc1ccc(C=Nc2ccc(Nc3ccccc3)cc2)s1` was tested, and the inhibition was inconclusive: 33.2%. For `COc1ccccc1N1CCN(CC(=O)N2CCCC2)CC1`, the inhibition was inconclusive: 33%. For `COc1ccc(N2CCCC2)c(NC(=O)c2ccc(Br)o2)c1`, the inhibition was inconclusive: 34.5%. With `N#Cc1c(Nc2ccccc2Cl)s[nH]c1=O` the inhibition was inconclusive: 65.4%. With `COc1cc(/C=N/NS(=O)(=O)c2ccc(C)c([N+](=O)[O-])c2)cc([N+](=O)[O-])c1O` the inhibition was inactive: 22.1%. In the case of `O=C(N/N=C/c1cccc(O)c1)C(=O)N1CCCCCC1`, the inhibition was inactive: 0.3%. `Cc1cc(C)c(S(=O)(=O)Nc2ccc(O)cc2)cc1C` was tested, and the inhibition was inconclusive: 48%. With `O=C(Nc1ccc(Nc2ccccc2)cc1)N1CCOCC1` the inhibition was inconclusive: 74.2%. With `CN(C)c1ccc(NC(=O)CN2CCC(N3CCCCC3)CC2)cc1` the inhibition was inconclusive: 34.1%. `Cc1ccc(NC(=O)c2ccccc2Cl)cc1-n1cnnn1` was tested, and the inhibition was inactive: 3.88%. `CN1CCN(S(=O)(=O)c2ccc(N3CCN(c4ccc(O)cc4)CC3)c([N+](=O)[O-])c2)CC1` was tested, and the inhibition was inconclusive: 73%. With `CCOC(=O)c1cc(-c2ccc(N)cc2)sc1N` the inhibition was inconclusive: 144%. `COc1ccc(N2CCN(CCNS(=O)(=O)c3cccc4nsnc34)CC2)cc1` was tested, and the inhibition was inconclusive: 32.7%. With `CC(C)Cc1nnc(NC(=O)CCC(=O)NCCc2ccc(Cl)cc2)s1` the inhibition was inactive: 4.94%. In the case of `COCc1cc(C)nc(OCC(=O)N/N=C/c2ccccc2)c1C#N`, the inhibition was inactive: 5.88%. `O=S(=O)(c1cccs1)N1CCN(c2ccc(O)cc2)CC1` was tested, and the inhibition was inconclusive: 86.5%. For `O=C(N/N=C/c1ccc(O)c(O)c1)c1cc(-c2ccccc2)nc2ccccc12`, the inhibition was inconclusive: 50.4%. In the case of `COc1cc(CNc2ccc3c(c2)OCCO3)ccc1OCC(N)=O`, the inhibition was inconclusive: 71.8%. With `Oc1ccc(-c2nc3ncccn3c2Nc2ccc3c(c2)OCO3)cc1` the inhibition was inconclusive: 93.6%. In the case of `CCN(C[C@H]1N[C@@](C)(C(=O)OC)[C@H]2C(=O)N(C)C(=O)[C@@H]12)C(=O)c1ccccc1`, the inhibition was inactive: 6.04%. With `COc1cc(CNc2ccc(N3CCOCC3)cc2)ccc1OCC(=O)NC(C)(C)C` the inhibition was inconclusive: 121%. With `COc1ccc(/C=C/C(=O)OCC(=O)NCCCc2ccccc2)cc1OC` the inhibition was inactive: 1.47%. In the case of `Brc1ccc(OCCCCCN2CCOCC2)cc1`, the inhibition was inconclusive: 34%.
